From the BET-seq Pho4 binding data (Le et al. 2018) come the findings set out here.

The other results are listed elsewhere or left out. The energies were worked out here from pooled read counts, against the library average; single values are noisy.

The target of the experiment is T1, Pho4 (S. cerevisiae) (UniProt P07270).
T1 sequence: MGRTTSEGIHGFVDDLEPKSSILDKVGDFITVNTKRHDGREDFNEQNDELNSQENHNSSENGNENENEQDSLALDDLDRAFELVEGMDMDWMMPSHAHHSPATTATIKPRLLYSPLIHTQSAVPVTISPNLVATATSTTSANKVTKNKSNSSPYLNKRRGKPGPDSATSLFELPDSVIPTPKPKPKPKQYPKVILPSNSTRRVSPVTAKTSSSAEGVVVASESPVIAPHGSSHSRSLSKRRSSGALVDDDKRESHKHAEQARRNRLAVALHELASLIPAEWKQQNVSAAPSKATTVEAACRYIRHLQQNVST
The experiment can be described thus: relative binding free energy (BET-seq); higher = weaker binding. As to conditions: reference: library average.
Turning to TTAAACACGTGAGTGG, the “relative binding free energy” value came out at 0.2 kcal/mol.

As to TTGGTCACGTGGAGAG, the “relative binding free energy” value came out at 0.13 kcal/mol.

Consider ATTCTCACGTGTATGT, for which the “relative binding free energy” value came to 0.11 kcal/mol.

Consider TATATCACGTGTGGGG, for which the “relative binding free energy” value worked out at 0.23 kcal/mol.

On to AGGCGCACGTGCGGGT, for which the “relative binding free energy” value is -0.25 kcal/mol.

For GGGTCCACGTGGGCTG, the “relative binding free energy” value was 0 kcal/mol.

AGCTTCACGTGGGGCA: the “relative binding free energy” value amounted to 0.16 kcal/mol.

Consider TCTTTCACGTGTGTGA, for which the “relative binding free energy” value was 0.14 kcal/mol.

In the case of CTAATCACGTGTAGGG, the “relative binding free energy” value stood at 0.17 kcal/mol.

As for CTTGGCACGTGTAAAT, the “relative binding free energy” value came to 0.23 kcal/mol.

As for ATGTGCACGTGAGGAT, the “relative binding free energy” value is 0.22 kcal/mol.

For the sequence TGCATCACGTGTATTT, the “relative binding free energy” value is 0.18 kcal/mol.

ATTGACACGTGAAGAG: the “relative binding free energy” value came out at 0.15 kcal/mol.

Consider GAGGTCACGTGGTGCA, for which the “relative binding free energy” value was found to be 0.04 kcal/mol.

Regarding TTTTACACGTGGTTGC, the “relative binding free energy” value was 0.08 kcal/mol.

With GGGGCCACGTGGTACG, the “relative binding free energy” value is -0.18 kcal/mol.

Consider GGTATCACGTGTTCGA, for which the “relative binding free energy” value came to 0.19 kcal/mol.

On to CTTGTCACGTGGCGGG, for which the “relative binding free energy” value is -0.01 kcal/mol.

In the case of TAAAGCACGTGTCGTT, the “relative binding free energy” value stood at 0 kcal/mol.

For the sequence TATAACACGTGCGGTG, the “relative binding free energy” value is -0.12 kcal/mol.

Turning to AGGGGCACGTGGCCAT, the “relative binding free energy” value was -0.21 kcal/mol.

In the case of AGTTTCACGTGGCGCG, the “relative binding free energy” value was determined as 0.19 kcal/mol.

For GAGGGCACGTGTTTCA, the “relative binding free energy” value is 0.04 kcal/mol.

Take ACTGTCACGTGTCTGT: the “relative binding free energy” value was 0.13 kcal/mol.

With GCGGGCACGTGAGATT, the “relative binding free energy” value is 0.24 kcal/mol.

On to AGGATCACGTGTATTG, for which the “relative binding free energy” value is 0.02 kcal/mol.

For GTTAACACGTGTGTCA, the “relative binding free energy” value was 0.01 kcal/mol.

For GTGGTCACGTGTCGGT, the “relative binding free energy” value was 0.27 kcal/mol.

For the sequence TGTTACACGTGATGCC, the “relative binding free energy” value was 0.27 kcal/mol.

For the sequence TAAAGCACGTGGAGAG, the “relative binding free energy” value stood at 0.04 kcal/mol.

TTATTCACGTGGTCAA: the “relative binding free energy” value turned out to be 0.13 kcal/mol.

Consider GTAGTCACGTGGGCGT, for which the “relative binding free energy” value was 0.12 kcal/mol.

Turning to TGTGCCACGTGTTGGA, the “relative binding free energy” value was -0.12 kcal/mol.

Turning to TTGGACACGTGTGTTG, the “relative binding free energy” value was 0.13 kcal/mol.

As for ATATTCACGTGGGGTA, the “relative binding free energy” value was 0.12 kcal/mol.

Regarding ATGGACACGTGACAGG, the “relative binding free energy” value amounted to 0.15 kcal/mol.

Regarding TGCGTCACGTGATTCT, the “relative binding free energy” value is 0.28 kcal/mol.

With GCGTGCACGTGGGGTC, the “relative binding free energy” value is -0.24 kcal/mol.

AGAGTCACGTGGTACG: the “relative binding free energy” value stood at 0.02 kcal/mol.

Consider TGGAACACGTGTTCGT, for which the “relative binding free energy” value turned out to be 0.12 kcal/mol.

As to GAGTTCACGTGATGGA, the “relative binding free energy” value turned out to be 0.42 kcal/mol.

Take GGTTTCACGTGCAGGC: the “relative binding free energy” value was 0.39 kcal/mol.

GGGTCCACGTGAGGTC: the “relative binding free energy” value was 0.48 kcal/mol.

For the sequence GTGTTCACGTGTCGAT, the “relative binding free energy” value worked out at 0.23 kcal/mol.

With TTCTGCACGTGGGCAG, the “relative binding free energy” value was -0.21 kcal/mol.

With GATGACACGTGGTGCG, the “relative binding free energy” value amounted to 0.01 kcal/mol.

Take TTTTGCACGTGGGAAA: the “relative binding free energy” value turned out to be 0.08 kcal/mol.

For AGGTCCACGTGAATGT, the “relative binding free energy” value amounted to 0.21 kcal/mol.

As to TGGATCACGTGGTGTG, the “relative binding free energy” value amounted to 0.03 kcal/mol.

Take GATTGCACGTGTGGAA: the “relative binding free energy” value worked out at 0.1 kcal/mol.

For the sequence GTCAGCACGTGGGAGA, the “relative binding free energy” value is -0.1 kcal/mol.

In the case of TTTTGCACGTGGATTA, the “relative binding free energy” value was 0.07 kcal/mol.

For TGGGACACGTGGTTTC, the “relative binding free energy” value stood at 0.12 kcal/mol.

TATAACACGTGTCTGT: the “relative binding free energy” value stood at 0.04 kcal/mol.

For the sequence TAAAGCACGTGGTCTG, the “relative binding free energy” value is -0.2 kcal/mol.

On to GATATCACGTGTTGGC, for which the “relative binding free energy” value came out at 0.34 kcal/mol.

Turning to TTAAGCACGTGGCGTA, the “relative binding free energy” value was -0.26 kcal/mol.

For TGGGGCACGTGGCATA, the “relative binding free energy” value was -0.25 kcal/mol.

In the case of CGGTTCACGTGGCAAG, the “relative binding free energy” value came out at 0.24 kcal/mol.

Take CGAGGCACGTGTTAGT: the “relative binding free energy” value is -0.09 kcal/mol.

With ATCATCACGTGTTAGG, the “relative binding free energy” value stood at 0.23 kcal/mol.

In the case of TTAGACACGTGAGGTG, the “relative binding free energy” value is 0.25 kcal/mol.

Turning to CATTGCACGTGAAGTG, the “relative binding free energy” value was 0.1 kcal/mol.

With CGTGACACGTGTTAGG, the “relative binding free energy” value stood at 0.02 kcal/mol.

On to GCTGGCACGTGGGAAG, for which the “relative binding free energy” value was -0.22 kcal/mol.

With TAGAGCACGTGGGATA, the “relative binding free energy” value was -0.14 kcal/mol.

On to TTTTCCACGTGATGGG, for which the “relative binding free energy” value is 0.17 kcal/mol.

On to GTGTTCACGTGGTCGG, for which the “relative binding free energy” value stood at 0.33 kcal/mol.

Take GCGGGCACGTGCGCGG: the “relative binding free energy” value is -0.28 kcal/mol.

On to TAGAGCACGTGCAAGT, for which the “relative binding free energy” value came to 0.05 kcal/mol.

On to TTTCTCACGTGTTACG, for which the “relative binding free energy” value came out at 0.42 kcal/mol.

For the sequence TACGACACGTGTATGT, the “relative binding free energy” value was 0.09 kcal/mol.

Consider TGGAACACGTGGAATG, for which the “relative binding free energy” value is 0.02 kcal/mol.

Take AGGGACACGTGATGGG: the “relative binding free energy” value worked out at 0.16 kcal/mol.

With TTCAGCACGTGAGGGG, the “relative binding free energy” value turned out to be 0.06 kcal/mol.

As for CAAGGCACGTGGTTGG, the “relative binding free energy” value is -0.07 kcal/mol.

As for TTCGACACGTGGCGGT, the “relative binding free energy” value was -0.03 kcal/mol.

In the case of TGGCTCACGTGTATGG, the “relative binding free energy” value came out at 0.16 kcal/mol.

Turning to GGTGACACGTGTAGCG, the “relative binding free energy” value turned out to be 0.06 kcal/mol.

For ATGTGCACGTGAGATC, the “relative binding free energy” value is 0.36 kcal/mol.

Regarding TTAAGCACGTGCTGGG, the “relative binding free energy” value was -0.21 kcal/mol.

On to GTGTCCACGTGTGGAA, for which the “relative binding free energy” value came to 0.11 kcal/mol.

As for ATGGGCACGTGAGCTA, the “relative binding free energy” value came to 0.1 kcal/mol.

AGGCGCACGTGATGAG: the “relative binding free energy” value turned out to be 0.15 kcal/mol.

For TACTACACGTGGGTGT, the “relative binding free energy” value is -0.05 kcal/mol.

Turning to GTGGTCACGTGCCGGT, the “relative binding free energy” value is 0.14 kcal/mol.

TTTTCCACGTGTTGAT: the “relative binding free energy” value was found to be 0.04 kcal/mol.

Regarding TAAAGCACGTGAGCGG, the “relative binding free energy” value stood at 0.11 kcal/mol.

As to CGCGTCACGTGCGTGG, the “relative binding free energy” value is -0.1 kcal/mol.

Take CATTACACGTGGGTTG: the “relative binding free energy” value was -0.08 kcal/mol.

GGATACACGTGGGTGA: the “relative binding free energy” value was found to be 0.01 kcal/mol.

Take ACTGGCACGTGGGTGA: the “relative binding free energy” value is -0.13 kcal/mol.

As for GTATACACGTGATTGA, the “relative binding free energy” value was 0.25 kcal/mol.

For the sequence AGGGACACGTGGGCGC, the “relative binding free energy” value was -0.12 kcal/mol.

Regarding ATTGGCACGTGCTATT, the “relative binding free energy” value was -0.26 kcal/mol.

For AGTGACACGTGATGGA, the “relative binding free energy” value was 0.04 kcal/mol.

ACGGTCACGTGGTGGA: the “relative binding free energy” value was found to be 0.08 kcal/mol.

Take TTTCGCACGTGGTCTG: the “relative binding free energy” value is -0.18 kcal/mol.

Turning to GGGGGCACGTGGTAAC, the “relative binding free energy” value was -0.28 kcal/mol.

With TAGGGCACGTGTAATG, the “relative binding free energy” value is -0.07 kcal/mol.

Turning to ATTTTCACGTGGAGGC, the “relative binding free energy” value is 0.31 kcal/mol.

Turning to TCTGGCACGTGGCGGT, the “relative binding free energy” value was -0.24 kcal/mol.

For the sequence ATTTACACGTGGTGGC, the “relative binding free energy” value turned out to be 0.22 kcal/mol.

On to TTGCGCACGTGGCTAG, for which the “relative binding free energy” value was -0.09 kcal/mol.

Take TGGGCCACGTGAAATT: the “relative binding free energy” value worked out at 0.33 kcal/mol.

Take CTTAGCACGTGAGATT: the “relative binding free energy” value amounted to 0.25 kcal/mol.

Regarding TTGAACACGTGGTTGG, the “relative binding free energy” value is -0.05 kcal/mol.

Take GTTAGCACGTGAGCTT: the “relative binding free energy” value was 0.21 kcal/mol.

For the sequence GGAGTCACGTGCGTAG, the “relative binding free energy” value was -0.01 kcal/mol.

As to GTAATCACGTGAGAGT, the “relative binding free energy” value turned out to be 0.37 kcal/mol.

Regarding ATTCACACGTGGTCGG, the “relative binding free energy” value stood at 0.13 kcal/mol.

As for GGTTTCACGTGAGCGT, the “relative binding free energy” value amounted to 0.36 kcal/mol.

In the case of GTTTCCACGTGGGGAG, the “relative binding free energy” value was -0.03 kcal/mol.

In the case of CGTTGCACGTGAAGTG, the “relative binding free energy” value is 0.24 kcal/mol.

As to AGATACACGTGTATGT, the “relative binding free energy” value was -0.1 kcal/mol.
